We go through 14 molecules from PMC12136788.

First the molecules themselves.
T1: UNK ZnF1-3 (human, UniProt Q9C0B0 31-174)
T1 sequence: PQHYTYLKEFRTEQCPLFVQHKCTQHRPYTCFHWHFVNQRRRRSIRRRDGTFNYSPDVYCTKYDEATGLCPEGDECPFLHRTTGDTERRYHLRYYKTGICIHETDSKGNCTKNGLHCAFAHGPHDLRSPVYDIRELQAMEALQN

B1: chr4:140556289:140556290:+_ENSMUSG00000036622_ENSMUST00000037055|mus_mus|mus_mus_mus_hu_False|38_78 (ssRNA)
RNA: GGGAGUUCUACAGUCCGACGAUCGAUGGAGCUCACCAGGCCCCCUUUUGCCGUGCAGAACCCUGUCCGGGUCACCACUGCCAGGACGUGCGGUCCCACGUAGGCUCGGGCCUGCAAGAUGAGGGUCCCGCAGAAGAGUGUGUGCAACAGAGGAUUGAGCAUCA
B2: chr11:46405157:46405158:+_ENSG00000110492_ENST00000395566|hu_hu|hu_hu_hu_mus_False|8_68 (ssRNA)
RNA: GGGAGUUCUACAGUCCGACGAUCCCCUCCCCACUUUGGGCACUUGGUGUGGGCGUGAGAGGACAGGAUGAUUGAUUAGAGCUGACAGGAAGACAAAAGGCACUGGUGGGUUAUAUCUUGGGCCUGUGAGAGGGAGGGGCUCCGCAACAGAGGAUUGAGCAUCA
B3: chr5:44142225:44142226:-_ENSMUSG00000039753_ENSMUST00000047857|mus_mus|FALSE|FALSE (ssRNA)
RNA: GGGAGUUCUACAGUCCGACGAUCCCCUGCACCAGUUACAGUCAGACAGCCAGAGAGAUUCAGGUGCUCCAGGUAAGGCAGCCCUCCUCCCAGAGUCAGAGCCCUGAGACCAUGGUCUGUGAUCUGGUAACAUCCAGACAGACUCAACAGAGGAUUGAGCAUCA
B4: chrX:16870723:16870724:-_ENSG00000102054_ENST00000404022|hu_mus|FALSE|FALSE (ssRNA)
RNA: GGGAGUUCUACAGUCCGACGAUCCUUAUGCGAUUCAAAGGUGUGGAGUUUUAGUUUCAGAUUACGCAGGUCCCAUAAAGCUACAGUCUUAUCUGCAGAGCCAGUUGCCAGAAUGAACUCGCUGUAGGGAUUGAAUGAGAGGCACAACAGAGGAUUGAGCAUCA
B5: chr10:33214929:33214930:-_ENSG00000150093_ENST00000302278|hu_hu|hu_hu_hu_mus_True|88_98 (ssRNA)
RNA: GGGAGUUCUACAGUCCGACGAUCAACAAGUUCAUUGAAUACUUCUCCUUUAUUAGUAAGACUAAGCACAUUUUUGUAGCUAAAUGGGCUGGUGCAGUUUUGUUCACUUGUACAAGGAUUUCUUAGCUUUGCUGGGGUUGUGCUCAACAGAGGAUUGAGCAUCA
B6: 70344148_70344643_1976_CDS_ENSG00000184634_ENST00000374080|human|control|control (ssRNA)
RNA: GGGAGUUCUACAGUCCGACGAUCAAUGUCCAUAGAUUCUGAGAGCCCUGGAUCUUCCAGCUUGCUGCUGCUGCUGCCUUCAGCCUCCUUGUGCUCUGGGUCAUCGGCAGGAUCAUCAAAGGGAGAGGGAGGCCGGGGACCAGGCAACAGAGGAUUGAGCAUCA
B7: 22956485_22958199_1973_CDS_ENSG00000068793_ENST00000560848|human|control|control (ssRNA)
RNA: GGGAGUUCUACAGUCCGACGAUCCUGCUGCAGCGUUUCACUGAAAUUUAUCAAGUGAGUGUAGAAGAAUGACUCUCGAUGAAAUUUUUCUAUGUCCAAUAUGGUGGGCCCCUCAAGGCUACUUCUCAAGGUUUUCUUGGAACCCAACAGAGGAUUGAGCAUCA
B8: chr3:179287964:179287965:+_ENSG00000136518_ENST00000429709|hu_hu|hu_hu_hu_mus_True|68_88 (ssRNA)
RNA: GGGAGUUCUACAGUCCGACGAUCCUUGAGUGGUGAGAUGGCCUCCAUAUUCUCCCUGGGCACGCGGAGAGCAUUAGUGUCUAUGUAGUAGGUGGGCCCGCCCUGCUUGCCUUUGUCACCAUCAAUCUCCAUCAUUGUACUUCCCAACAGAGGAUUGAGCAUCA
B9: chr6:41757443:41757444:+_ENSG00000214736_ENST00000398881|hu_mus|hu_hu_hu_mus_False|1_78 (ssRNA)
RNA: GGGAGUUCUACAGUCCGACGAUCGAACCGUGCAGAGGCAACAUCUCAGCCGACACUGUGGACUCAAGGGGCAGUGGGGGGGGGUUCAGGCAAGGAGAGGGAGUCAACUUCAGCUGCCACUCAGGUAGGAUCUUGUGGGGCACACAACAGAGGAUUGAGCAUCA
B10: chr1:225611761:225611762:-_ENSG00000143815_ENST00000272163|hu_mus|hu_hu_hu_mus_True|8_48 (ssRNA)
RNA: GGGAGUUCUACAGUCCGACGAUCCCAGGCCAUCGGCCUCUGACCACUUCACCCUCAACAAACUUCCUACUUGGCAUUUUCUAAAAUUAACCUGCGCGCGCUCCGGCGGGAACUCCAGCCACUCCAGGGAGAAUAGUAGCAGCCCAACAGAGGAUUGAGCAUCA
B11: chr16:94664741:94664742:+_ENSMUSG00000040785_ENSMUST00000117648|mus_hu|mus_mus_mus_hu_False|68_78 (ssRNA)
RNA: GGGAGUUCUACAGUCCGACGAUCUGGUACUGAUCUUGGUAGCUGAUAUUCAGGAGAAAUGUUGGCCAAAGGUGUGUAUAUGCUGGUGUACUGGGGCAAACCUGGUAACACGUUUAUGUAUGCUGGCGGUGUCUGGGUGAUAUCCAACAGAGGAUUGAGCAUCA
B12: chr4:146681603:146681604:-_ENSG00000151612_ENST00000508784|hu_hu|motif|central (ssRNA)
RNA: GGGAGUUCUACAGUCCGACGAUCAUUCACCCAACAGAAAACCAAAUGCACCAGUAUAUAAGCUUACAAGUGCUGAUUGCGGUUAAGGACACUCUCUUUAGGGUUUAACAAGACAAGAUUCCUUUCAGAGAAAAGUACGGAGAACAACAGAGGAUUGAGCAUCA
B13: 165880641_165880761_2131_CDS_ENSMUSG00000027678_ENSMUST00000088095|mouse|control|control (ssRNA)
RNA: GGGAGUUCUACAGUCCGACGAUCCCCUGAUGUUGAGGAGGACACUCCAGAGGGGCUGGUGACACUAACGGAAGAGUCUUUGCAGUUUGGAUCCAGGGGAGAGUUGGUCAAGGAGGAAUGGCCUCGGUCGUCGGAGGAGCACGUCAACAGAGGAUUGAGCAUCA
B14: chr4:17845017:17845018:+_ENSG00000109805_ENST00000514176|hu_mus|hu_hu_hu_mus_False|18_68 (ssRNA)
RNA: GGGAGUUCUACAGUCCGACGAUCGCUCUCUUAACUUGUAUCUUCAUUAAGGAACUCUGCAAGGUUAGUUUACUUUUUCUGUAGCGCAGCUGUUUUGGCUCGUCUGGGUAAUCUCAUUUCAUUUCUGGAUGGUGGUUCAUGAUCCAACAGAGGAUUGAGCAUCA

This is one part of the list.

In the assay the target is T1, UNK ZnF1-3. The assay can be described thus: nsRBNS (natural sequence RNA bind-n-seq); RBNS binding buffer (assumed for nsRBNS): 25 mM Tris pH 7.5, 150 mM KCl, 3 mM MgCl2, 0.01% Triton X-100, 500 ug/ml BSA, 20 U/ml SUPERase-In, 4 C; UNK is unkempt and MSI1 is Musashi-1; names of the RNAs are library labels; protein concentration not given here; high values mean tight binding.
B1: the binding signal came to 0.684 enrichment R. With B2, the binding signal worked out at 2.03 enrichment R. For B3 the value was 0.874 enrichment R; for B4, 1.36 enrichment R; for B5, 0.626 enrichment R.

With B6, the binding signal stood at 0.891 enrichment R.

In turn, B7 came in with a binding signal of 0.635 enrichment R. For the molecule B8, the binding signal was found to be 0.871 enrichment R. For B9 the value was 2.94 enrichment R. For B10 the value was 1.61 enrichment R. With B11, the binding signal came to 0.958 enrichment R. The same measure for B12: 1.54 enrichment R. The same measure for B13: 1.76 enrichment R; for B14: 0.435 enrichment R.
